Experimental data as given in PubChem BioAssay AID1956 (SRMLSC, 2009).
Values joined by “and” are separate entries in the source; they are usually repeats but may differ in a detail not shown here. Equal entries are not always repeated. The list shows a part of the results. Shown are side measurements of this screen, not its main read-out; they come without a call.

test: compounds boosting herpes simplex virus growth – fold increase, host cell viability (AID 1956); conditions: HSV replication augmentation in cells; fold increase: measured here: primary screen fold increase 10 uM, at 10 µM, stronger effect = higher value; viability: measured here: host cell viability series, at 25 µM, stronger effect = lower value; also: tested in PC3 cells

Row | Structure (SMILES) | fold increase | viability
1 | O=[N+]([O-])c1cccc2c([As](=O)(O)O)cccc12 | 1.34 | 98.6%
2 | CC(C)n1c(=O)c(C=Nc2cccc([N+](=O)[O-])c2)c(O)n(CCc2ccccc2)c1=O | 1.77 | 90.8%
3 | CCN(CC)c1ccc(/C=N/c2sc3c(c2C#N)C2CCN3CC2)c(O)c1 | 7.18 | 78.6%
4 | O=[N+]([O-])c1ccc(NCc2ccccc2)c2nonc12 | 9.09 | –
5 | CN1CCN(c2nc3ccccn3c(=O)c2C=C2C(=O)N(C)C(=O)N(C)C2=O)CC1 | 1.65 | –
6 | CCCCn1c(O)c(C(C)=NCCCn2ccnc2)c(=O)[nH]c1=O | 1.32 | –
7 | O=C1NC(=O)C2=Cc3ccc(O)cc3OC2(O)N1 (configuration not stated) | 2.97 | 91.6%
8 | CC(C)(C)OC(=O)c1c(N)n(Cc2ccco2)c2nc3ccccc3nc12 | 1.45 | 94.7%
9 | Cc1cc(OC(=O)N(C)C)nc(-c2ccc(C)c(Cl)c2)n1 | 1.32 | –
10 | CCOC(=O)c1ccc(N=C(C)c2c(O)[nH]c(=O)[nH]c2=O)cc1 | 1.36 | 97.8%
11 | Cc1cccc(N2C(=O)NC(=O)/C(=C/c3ccc([N+](=O)[O-])o3)C2=O)c1 | 1.32 | 99.1%
12 | O=C1NC(=O)N(Cc2ccc(F)cc2)C(=O)/C1=C\c1ccoc1 | 2.57 | 98.4%
13 | Cc1cccc(-n2c(O)c(/C=C/C=Nc3ccccc3)c(=O)[nH]c2=O)c1 | 2.71 | –
14 | CCCCC(=O)N/N=C/c1c(O)n(CC)c(=S)n(CC)c1=O | 1.32 | –
15 | Cc1ccccc1-n1c(C)cc(/C=C2/C(=O)NC(=O)N(Cc3ccco3)C2=O)c1C | 1.82 | 97.1%
16 | COc1cc(/C=C/c2nc3ccccc3c(=O)n2-c2cccc(O)c2)ccc1O | 5.59 | 81.3%
17 | Cc1nc2ccccc2c(=O)n1-n1cnnc1 | 1.44 | 101%
18 | CN1CCN(c2ccc(/C=C3\C(=O)NC(=S)N(c4cccc(Br)c4)C3=O)o2)CC1 | 1.48 | –
19 | CN1CCN(c2ccc([N+](=O)[O-])c3no[n+]([O-])c23)CC1 | 4.91 | –
20 | C=CCN1C(=O)/C(=C/c2cc(C)n(-c3cccnc3)c2C)C(=O)NC1=S | 1.36 | 94.2%
21 | O=c1[nH]c(=O)n(Cc2ccccc2)c(O)c1C=NCCCO | 1.37 | 96.2%
22 | Cc1cc(C)cc(N2C(=O)/C(=C\c3ccc(N4CCN(C)CC4)o3)C(=O)NC2=S)c1 | 2.57 | 92.7%

Row | Structure (SMILES) | fold increase | viability
23 | O=C1NC(=O)C(=Cc2ccc(-c3cc(Cl)ccc3[N+](=O)[O-])o2)C(=O)N1 | 1.42 | 62.5%
24 | Nc1c(C(=O)NCC2CCCO2)c2nc3ccccc3nc2n1Cc1ccco1 (configuration not stated) | 1.39 | –
25 | O=C1NC(=O)N(c2ccc(Cl)cc2)C(=O)/C1=C\c1ccc(Sc2nc3ccccc3[nH]2)o1 | 1.49 | 94.5%
26 | CN(C)/C=C1/C(=O)NC(=O)N(CCNc2ncc(C(F)(F)F)cc2Cl)C1=O | 1.47 | 99%
27 | CC(=O)C1C2c3ccccc3O[C@@]1(C)N=c1s/c(=C/c3ccoc3)c(=O)n12 (some centres not stated) | 2.37 | 93.5%
28 | CCOc1cc(C2C(C#N)=C(N)Oc3c2c(=O)oc2ccccc32)ccc1OC(=O)c1cccs1 (configuration not stated) | 1.58 | 99.5%
29 | Nc1c(C(=O)NCCN2CCOCC2)c2nc3ccccc3nc2n1Cc1ccco1 | 1.17 | 89.3%
30 | CC1(C(O)(C#CCN2CCCCC2)c2ccccc2)CCCC1 (configuration not stated) | 1.49 | 78.1%
31 | CN1CCC2(CC1)C(C#N)=C(N)NC(S)=C2C#N | 1.38 | 91.3%
32 | CCN1C(=O)C(=C/C=C/c2ccco2)C(=O)N(CC)C1=S | 1.87 | 95.4%
33 | O=C1NC(=S)N(Cc2ccco2)C(=O)/C1=C\c1cccs1 | 1.34 | –
34 | O=C(O)CCC(=O)NCCC1=c2ccccc2=N/C1=C\c1c(O)n(Cc2ccc(F)cc2)c(=S)[nH]c1=O | 1.61 | 103%
35 | Cc1ccc(/C=C2/C(=O)NC(=O)N(CCc3ccc(F)cc3)C2=O)o1 | 1.12 | –
36 | Cc1ccc2cc(C=C(C#N)C#N)c(Cl)nc2c1 | 1.32 | –
37 | Cc1ccnc(-n2c(C)cc(/C=C3\C(=O)NC(=S)N(C)C3=O)c2C)c1 | 1.5 | 91.9%
38 | Cc1ccc(N2C(=O)NC(=O)/C(=C\c3cc(C)n(-c4sc5c(c4C#N)CCCC5)c3C)C2=O)cc1 | 1.35 | –
39 | CCN(CC)c1ccc(/C=C2\C(=O)NC(=S)N(C)C2=O)o1 | 1.88 | 94.1%
40 | CCOC(=O)c1c(N)n(Cc2ccco2)c2nc3ccccc3nc12 | 1.65 | 94.8%
41 | Nc1cncc(C(=O)O)c1 | 1.51 and 3.33 | 107% and 100%
42 | COc1ccc(C(C)=O)cc1CC(C(=O)c1ccc(F)cc1)N(C)C (configuration not stated) | 1.38 | 98.4%
43 | O=C1NC(=O)C(=Cc2ccc(N3CCOCC3)o2)C(=O)N1 | 1.4 | 99.4%
44 | N#CC1=C(N)Oc2cc(O)ccc2C1c1ccc2c(c1)OCO2 (configuration not stated) | 2.13 | 92.6%

Row | Structure (SMILES) | fold increase | viability
45 | COc1ccc(-n2c(O)c(/C=C/C=Nc3ccccc3)c(=O)[nH]c2=O)cc1 | 7.24 | –
46 | O=Cc1c(C(=O)O)n(Cc2ccc(Cl)cc2)c2ccccc12 | 1.41 | 98.9%
47 | CCN(CC)c1ccc(CC2C(=O)N(C)C(=O)N(C)C2=O)cc1 | 1.36 | 93.5%
48 | CCCCN1C(=O)/C(=C/C=C/c2ccco2)C(=O)NC1=S | 1.62 | 97.9%
49 | CCN(CC)c1ccc(/C=C2/C(=O)NC(=O)N(Cc3ccco3)C2=O)cc1 | 1.51 | 92.3%
50 | CN1C(=O)C(C2c3ccccc3C(=O)N2Cc2ccc([N+](=O)[O-])cc2)C(=O)N(C)C1=O (configuration not stated) | 1.34 | 90.3%
51 | CC1(C)OC(c2ccccc2)=C/C(=C/C=C2C(=O)NC(=O)NC2=O)O1 | 4.82 | 91.4%
52 | O=C1NC(=O)N(Cc2ccccc2)C(=O)/C1=C/N1CCCc2ccccc21 | 1.34 | 102%
53 | CCN1C(=O)/C(=C\c2ccc([N+](=O)[O-])s2)C(=O)NC1=S | 1.92 | 91.2%
54 | CN(C)[C@@H]1C(=O)C(C(N)=O)=C(O)[C@@]2(O)C(=O)C3=C(O)c4c(O)cccc4[C@@](C)(O)[C@H]3C[C@@H]12 | 1.33 | 98.3%
55 | O=C(/C=C/c1c[nH]c2ccccc12)c1c(O)n(CCc2ccccc2)c(=O)[nH]c1=O | 2.75 | 98.6%
56 | CC1=CC(=Cc2sc3ccccc3[n+]2C)C=C(C)O1 | 1.77 | 48.4%
57 | C/C(=N\N1CCCCCC1)c1c(O)n(-c2ccc(Cl)cc2)c(=O)[nH]c1=O | 1.33 | 98.3%
58 | Cc1ccccc1N1C(=O)NC(=O)/C(=C/c2ccc(N3CCOCC3)o2)C1=O | 1.4 | 97.4%
59 | CCOc1cc(/C=C2\C(=O)NC(=O)N(CCc3ccc(F)cc3)C2=O)ccc1O | 1.39 | 101%
60 | CC(=O)c1c(C)n(Cc2ccccc2)c2ccc(O)cc12 | 1.33 | 90.6%
61 | Cn1cccc1/C=C1\C(=O)NC(=O)N(Cc2ccco2)C1=O | 1.36 | 94.1%
62 | CN1C(=O)C(=Cc2ccc(N3CCCCC3)o2)C(=O)N(C)C1=S | 3.22 | 104%
63 | COc1ccccc1OP(=O)(Nc1cccnc1)Oc1ccccc1OC | 1.37 | 71.7%
64 | CC(C)C[C@H]1C(=O)N2CCCC2[C@]2(O)O[C@](NC(=O)[C@@H]3C=C4c5cccc6[nH]cc(c56)CC4N(C)C3)(C(C)C)C(=O)N12 (some centres not stated) | 2.02 | 96%
65 | O=C1NC(=O)N(c2ccc3c(c2)OCO3)C(=O)/C1=C\c1ccc(-c2ccccc2C(=O)O)o1 | 1.35 | 108%
66 | CCCSc1nc(O)c(CC)c(=O)n1C(C)CC (configuration not stated) | 1.34 | 94.1%

Row | Structure (SMILES) | fold increase | viability
67 | O=C1NC(=O)N(c2ccc3c(c2)OCO3)C(=O)/C1=C\c1ccc(N2CCCCC2)o1 | 1.76 | 90.3%
68 | CC(C)[C@H]1C(=O)N2CCC[C@H]2[C@]2(O)O[C@](NC(=O)[C@@H]3C=C4c5cccc6[nH]cc(c56)C[C@H]4N(C)C3)(C(C)C)C(=O)N12 | 2.7 | 97.8%
69 | O=C1NC(=O)N(Cc2ccccc2)C(=O)/C1=C/c1cnc(-c2ccccc2)nc1 | 2.06 | 97.5%
70 | CN1/C(=C\C=C2C(=O)NC(=O)NC2=O)C(C)(C)c2ccccc21 | 7.92 | –
71 | COc1ccc2c(c1)CC1(CN2C)C(=O)NC(=O)N(c2ccc(C)cc2)C1=O (configuration not stated) | 1.35 | 100%
72 | CCOC(=O)c1ccccc1NC(=O)c1c(O)[nH]c(=O)[nH]c1=O | 1.38 | 99.8%
73 | Cc1ccc(N2C(=O)NC(=O)/C(=C\C=C\c3ccco3)C2=O)cc1 | 1.71 | 73.7%
74 | CN(C(=O)Oc1ccc(C(C)(C)C)cc1)c1ccccc1 | 1.32 | 101%
75 | Cc1ccccc1-n1c(O)c(C=Nc2ccc3c(c2)OCO3)c(=O)[nH]c1=O | 1.36 | –
76 | CCc1nnc(NS(=O)(=O)c2ccc(N=Cc3c(O)n(-c4ccc(Cl)cc4)c(=O)[nH]c3=O)cc2)s1 | 1.4 | 98.2%
77 | O=c1[nH]c(=O)n(-c2ccc(F)cc2)c(O)c1C=NCCN1CCCCC1 | 1.32 | –
78 | O=C(NC(c1ccc(Cl)cc1)P(=O)(Oc1ccccc1)Oc1ccccc1)OCc1ccccc1 (configuration not stated) | 1.27 | –
79 | CCOC(=O)C1CCCN(c2ccc([N+](=O)[O-])c3nonc23)C1 (configuration not stated) | 7.69 | 98.7%
80 | O=c1c(C=Nc2cccnc2Cl)c(O)n(CCCCl)c(=O)n1C1CCCCC1 | 1.5 | 96.8%
81 | CCC(CO)NC(=O)C1C=C2c3cccc4[nH]cc(c34)CC2N(C)C1 (configuration not stated) | 1.44 | 93.7%
82 | O=C1NC(=O)N(Cc2ccc(F)cc2)C(=O)/C1=C\c1ccc(N2CCCC2)cc1 | 1.35 | 89.6%
83 | O=c1c2ccccc2nc(/C=C/c2ccc(O)cc2)n1-c1cccc(O)c1 | 4.97 | –
84 | Clc1ccccc1CN1CCN(c2cccc3[nH]ccc23)CC1 | 1.45 | 101%
85 | O=C1NC(=O)N(Cc2ccccc2)C(=O)/C1=C\c1ccco1 | 1.4 | 101%
86 | CCOC(=O)C1=C(N)Oc2cc(C)oc(=O)c2C12C(=O)N1c3c(cc(OC)cc32)C(C)=CC1(C)C (configuration not stated) | 1.54 | 93.5%
87 | O=C1NC(=O)N(Cc2ccco2)C(=O)/C1=C\c1cccn1CCOc1ccc(Cl)cc1 | 1.74 | 93.3%
88 | O=c1c2ccccc2nc(/C=C/c2ccc(O)cc2)n1-c1ccccc1O | 3.16 | 84.9%
